The results in this text go back to article PMC4336329 (PLoS ONE, 2015).

The whole screen tested about 310,000 compounds, of which about 14,000 (4.5%) showed an effect of 50% or more. Effects have a minus sign here. The list shows a part of the results.
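Further: peak tail current of the secondary pulse compared with the same well before compound.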

The target in this assay is human ether-à-go-go-related gene (hERG) potassium channel (human, UniProt Q12809). As to the kind of experiment: primary screen, population patch clamp on CHO cells stably expressing hERG.
Chain of human ether-à-go-go-related gene (hERG) potassium channel (Q12809 whole entry, looked up): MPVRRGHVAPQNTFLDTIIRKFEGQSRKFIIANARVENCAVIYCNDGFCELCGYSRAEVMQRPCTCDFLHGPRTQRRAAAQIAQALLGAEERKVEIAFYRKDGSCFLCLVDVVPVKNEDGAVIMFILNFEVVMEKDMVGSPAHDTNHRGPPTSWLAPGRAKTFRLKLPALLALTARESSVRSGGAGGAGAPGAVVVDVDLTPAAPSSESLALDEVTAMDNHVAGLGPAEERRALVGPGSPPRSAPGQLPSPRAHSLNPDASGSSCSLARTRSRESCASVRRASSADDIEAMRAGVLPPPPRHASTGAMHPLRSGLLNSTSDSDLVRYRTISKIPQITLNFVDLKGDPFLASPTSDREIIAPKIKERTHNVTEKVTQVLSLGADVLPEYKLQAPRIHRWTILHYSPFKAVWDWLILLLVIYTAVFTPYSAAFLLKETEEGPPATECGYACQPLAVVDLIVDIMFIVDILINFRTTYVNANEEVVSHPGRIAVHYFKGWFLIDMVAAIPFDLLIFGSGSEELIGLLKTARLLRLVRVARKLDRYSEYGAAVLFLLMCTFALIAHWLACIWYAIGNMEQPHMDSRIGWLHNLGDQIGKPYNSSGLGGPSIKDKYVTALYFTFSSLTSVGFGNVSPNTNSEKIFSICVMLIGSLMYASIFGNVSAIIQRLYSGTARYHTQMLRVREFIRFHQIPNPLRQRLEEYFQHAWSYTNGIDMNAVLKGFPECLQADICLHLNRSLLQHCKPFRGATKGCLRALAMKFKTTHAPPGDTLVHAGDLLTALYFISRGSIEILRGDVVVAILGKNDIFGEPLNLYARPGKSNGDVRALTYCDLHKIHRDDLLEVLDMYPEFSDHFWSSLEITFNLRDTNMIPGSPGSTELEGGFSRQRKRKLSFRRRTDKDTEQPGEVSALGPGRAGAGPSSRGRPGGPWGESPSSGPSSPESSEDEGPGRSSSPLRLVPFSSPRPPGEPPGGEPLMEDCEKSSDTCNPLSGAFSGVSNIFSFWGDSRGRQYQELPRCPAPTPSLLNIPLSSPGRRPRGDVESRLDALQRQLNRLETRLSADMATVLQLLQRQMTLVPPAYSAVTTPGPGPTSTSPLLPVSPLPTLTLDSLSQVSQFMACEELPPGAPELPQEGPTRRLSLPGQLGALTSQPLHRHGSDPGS
Turning to `COc1cccc(C=NCC(C)N=Cc2cccc(OC)c2O)c1O` (centres unmarked), the “hERG current change (%, negative = inhibition) at 10uM” value is on record as 3.33%.
With `Cc1ccc(-n2nnnc2/C=C\Nc2cc(C)on2)cc1` the figure was 13.8%; with `Nc1nc(NC(=O)c2ccco2)nn1-c1ccccc1`, 2.02%.
`N/C(Cc1ccc(Cl)cc1Cl)=N\OC(=O)c1ccccc1`: the “hERG current change (%, negative = inhibition) at 10uM” value is recorded as -8.71%.
Consider `O=C(CSc1ccc(Br)c2cccc(Cl)c12)Nc1ccc(S(=O)(=O)Nc2nccs2)cc1`, for which the “hERG current change (%, negative = inhibition) at 10uM” value is 27.1%.
Regarding `CCc1ccc2c(c1)cc(CN(C(=S)Nc1ccccc1)C1CC1)c1nnnn12`, the “hERG current change (%, negative = inhibition) at 10uM” value was -33.7%.
In the case of `CCCCCn1c(CN2CCN(C(=O)OCC)CC2)nc2c1c(=O)[nH]c(=O)n2C` it was -69.8%.
As for `O=c1ccn(-c2ccccc2)[nH]1`, the “hERG current change (%, negative = inhibition) at 10uM” value turned out to be 5.84%.
In the case of `O=C(O)c1coc2ccccc12` it was 14.9%; in that of `Oc1cccc(C(Nc2nccs2)c2ccc3cccnc3c2O)c1` (centres unmarked), -13.3%.
In the case of `CN(C)CCCNC(=O)/C(=C/c1ccc(-c2ccc([N+](=O)[O-])cc2)o1)NC(=O)c1ccccc1` it was -73.6%; in that of `CCN(CC)CCNC(=O)Cn1c(C)cc2ccccc2c1=O`, 1.83%.
In the case of `Cn1c(CNc2ccc(Cl)cc2)nc2ccccc21` it was -15.7%.
As to `Cc1cc(C)cc(N(C(C)C(=O)N2CCCCC2)S(C)(=O)=O)c1` (centres unmarked), the “hERG current change (%, negative = inhibition) at 10uM” value amounted to 4.06%.
With `CCOc1ccc(C2=NNC(c3cccs3)=Nc3ccc(OC)cc32)cc1OCC` the figure was -6.48%.
Take `O=C(CC1SC(N2CCCCC2)=NC1=O)Nc1ccc(C(=O)Nc2ccccc2)cc1` (centres unmarked): the “hERG current change (%, negative = inhibition) at 10uM” value is on record as -22.2%.
With `CC(=O)Nc1ccc(NC(=O)CN(c2cc(Cl)ccc2Cl)S(C)(=O)=O)cc1` the figure was 1.9%.
With `Cc1ccc(C)c2[nH]c(=O)c(C(c3nnnn3Cc3ccco3)N3CCc4ccccc4C3)cc12` (centres unmarked) the figure was -2.35%; with `COc1ccc(OCC(=O)NS(=O)(=O)c2ccccc2)cc1`, 15.3%; with `O=C(NCc1ccc(Cl)cc1)N1CCN(Cc2ccccc2)CC1`, -29.9%.
In the case of `CC(C)(C)NS(=O)(=O)c1ccc2nc(NC(=O)Cc3cccs3)sc2c1` it was -11%; in that of `Cc1ccc(Cn2ccsc2=NC(=O)COC(=O)c2ccc(O)cc2O)cc1`, 18.2%.
In the case of `O=C(NC1CCCCC1)C(=S)N1CCCC1`, the “hERG current change (%, negative = inhibition) at 10uM” value is 19.9%.
With `CCOc1ccc(OCCC(=O)N(CC(=O)Nc2ccccc2C(F)(F)F)Cc2ccco2)cc1` the figure was -5.98%; with `Cc1cc(CNC(=O)C(C)n2cc([N+](=O)[O-])cn2)c2ccccc2n1` (centres unmarked), -4.91%; with `CC(=O)Nc1ccc(NC(=O)C(C)OC(=O)CSCc2cccc(Cl)c2)cc1` (centres unmarked), 0.407%.
`Cc1ccc(S(=O)(=O)c2c(N)n(CCC(C)C)c3nc4ccccc4nc23)cc1`: the “hERG current change (%, negative = inhibition) at 10uM” value was -6.38%.
With `CCN(CC)CCNC(=O)c1ccc(NC(=O)C2CC(=O)N(CCc3ccc(OC)c(OC)c3)C2)cc1` (centres unmarked) the figure was 14.9%.
For the compound `C=CCNC(=O)C1CC2Cn3c(nc4cc5ccccc5cc43)C2N1C` (centres unmarked), the “hERG current change (%, negative = inhibition) at 10uM” value is on record as -16.2%.
As for `COc1cc(C2C(C(=O)C(C)(C)C)=C(O)C(=O)N2Cc2ccccc2)ccc1O` (centres unmarked), the “hERG current change (%, negative = inhibition) at 10uM” value is given as -1.33%.
In the case of `CC(C)N(C(=O)CSc1nnc(NC2CC2)s1)c1ccccc1` it was -13.1%; in that of `COc1ccc(/C=N/NC(=O)CC(=O)NCc2cccnc2)cc1[N+](=O)[O-]`, 16%; in that of `CCOC(=O)N1CCN(C(=O)c2nn(C)c3c2CSc2ccccc2-3)CC1`, -43.2%.
With `CC(C)(C)Nc1nc(Cl)nc(N(C#N)CN2C(=O)c3ccccc3S2(=O)=O)n1` the figure was 22.9%.
As to `CC1CCN(C(=O)COc2ccc(Nc3ccccc3)cc2)CC1`, the “hERG current change (%, negative = inhibition) at 10uM” value is on record as 2.41%.
In the case of `CN1C(=O)CSc2ccc(NC(=O)N3CCc4ccccc43)cc21`, the “hERG current change (%, negative = inhibition) at 10uM” value was -2.28%.
Consider `CCOc1cc(C2C3=C(CCCC3=O)Nc3nc(C(=O)OC)nn32)ccc1OC` (centres unmarked), for which the “hERG current change (%, negative = inhibition) at 10uM” value is 20.3%.
In the case of `CCCNC(=O)c1ccc2c(=O)c(O)c(-c3ccc(F)cc3)[nH]c2c1`, the “hERG current change (%, negative = inhibition) at 10uM” value was -10.3%.
With `COc1ccc(N(C(=O)CNC(=O)c2cccs2)C(C(=O)NCC2CCCO2)c2ccccc2)c(OC)c1` (centres unmarked) the figure was 12.5%; with `COc1ccc(CCn2c(-c3ccccc3)nc3c(c(=O)c4ccccc4n3C)c2=O)cc1`, 11.3%.
`O=C1C(c2ccnc3ccccc23)=C(O)c2ccccc21`: the “hERG current change (%, negative = inhibition) at 10uM” value is -4.78%.
Turning to `Cc1ccc(Cl)c(OCC(=O)N2CCc3ccccc3C2)c1`, the “hERG current change (%, negative = inhibition) at 10uM” value was 4.64%.
For the compound `Cc1ccc(C(C)C)c(OCc2nnc3n2CCCCC3)c1`, the “hERG current change (%, negative = inhibition) at 10uM” value is given as -29.3%.
With `CCNc1nc(N)nc(Oc2ccc(OCCOc3ccc(Cl)cc3Cl)nn2)n1` the figure was -25.5%.
